# Among all 310,000 compounds or so, about 2,200 (0.71%) showed an effect of 50% or more. The effect is printed as a negative number. The list shows a part of the results.
# Biological target: human ether-à-go-go-related gene (hERG) potassium channel (human, UniProt Q12809)
# Test: primary screen, population patch clamp on CHO cells stably expressing hERG
# human ether-à-go-go-related gene (hERG) potassium channel, sequence (Q12809 whole entry, looked up): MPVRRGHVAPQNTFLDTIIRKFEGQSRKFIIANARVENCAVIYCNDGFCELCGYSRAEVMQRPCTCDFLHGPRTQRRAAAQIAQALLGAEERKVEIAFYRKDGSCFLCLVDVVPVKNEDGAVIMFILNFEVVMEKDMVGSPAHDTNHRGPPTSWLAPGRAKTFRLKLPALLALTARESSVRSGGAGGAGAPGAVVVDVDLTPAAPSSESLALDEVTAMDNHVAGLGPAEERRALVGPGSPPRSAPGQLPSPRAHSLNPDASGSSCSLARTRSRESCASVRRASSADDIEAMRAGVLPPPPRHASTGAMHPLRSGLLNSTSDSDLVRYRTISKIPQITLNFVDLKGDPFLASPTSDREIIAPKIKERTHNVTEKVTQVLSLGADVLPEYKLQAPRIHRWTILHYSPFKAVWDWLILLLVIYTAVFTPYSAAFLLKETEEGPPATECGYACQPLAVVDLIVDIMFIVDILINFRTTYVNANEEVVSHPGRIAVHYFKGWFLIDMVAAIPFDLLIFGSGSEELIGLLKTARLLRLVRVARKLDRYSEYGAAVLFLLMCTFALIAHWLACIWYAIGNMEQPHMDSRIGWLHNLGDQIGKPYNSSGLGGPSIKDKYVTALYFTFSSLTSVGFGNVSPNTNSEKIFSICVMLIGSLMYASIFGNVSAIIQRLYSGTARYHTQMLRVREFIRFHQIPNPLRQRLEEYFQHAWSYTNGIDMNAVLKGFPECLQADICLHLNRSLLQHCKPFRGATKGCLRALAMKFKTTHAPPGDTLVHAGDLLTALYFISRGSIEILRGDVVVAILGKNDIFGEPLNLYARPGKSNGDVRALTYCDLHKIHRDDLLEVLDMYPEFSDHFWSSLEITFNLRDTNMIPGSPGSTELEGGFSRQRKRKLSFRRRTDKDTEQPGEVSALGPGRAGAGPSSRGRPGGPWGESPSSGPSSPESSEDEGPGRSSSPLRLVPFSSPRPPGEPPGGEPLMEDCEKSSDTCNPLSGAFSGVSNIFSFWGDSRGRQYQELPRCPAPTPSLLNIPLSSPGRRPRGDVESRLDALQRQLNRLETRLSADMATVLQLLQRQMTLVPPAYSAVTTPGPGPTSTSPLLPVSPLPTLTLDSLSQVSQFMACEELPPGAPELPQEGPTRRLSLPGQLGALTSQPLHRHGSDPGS
row,SMILES,"hERG current change (%, negative = inhibition) at 1uM"
1,COc1cc(C(=O)NCc2nnc(SCC(=O)NCCc3ccccc3)o2)cc(OC)c1OC,9.35%
2,CC(=O)NC(Cc1ccc(N(CCCl)CCCl)cc1)C(=O)NC(C(=O)O)C(C)C (stereo not drawn),13.9%
3,COC(=O)/C=C/c1c(C)nc(NCc2ccccc2)nc1Cl,14.6%
4,COCCN(C(=O)COc1ccc(Cl)cc1)c1nnc(-c2cccnc2)s1.Cl,7.2%
5,COc1ccc(CN2CCc3c([nH]c4ccccc34)C2)c(OC)c1C,-14.2%
6,CC(=O)NC(CC(=O)NCCN1C(=O)S/C(=C\c2ccccc2)C1=O)c1ccccc1 (stereo not drawn),7.28%
7,COc1cc(NC(=O)C2CCCN(c3ncccn3)C2)cc(OC)c1 (stereo not drawn),14.7%
8,CCN1C(=O)CC(N2CCOCC2)C1=O (stereo not drawn),10.8%
9,COc1ccccc1NC(=O)CSc1nnc(COc2ccc(Cl)cc2)n1Cc1ccco1,11.5%
10,CC(c1ccccc1)C1CC(=O)N(c2ccccc2)C1=O (stereo not drawn),10.5%
11,O=C(c1nc2ccc(Cl)cn2c1CNCCn1ccnc1)N1CCCCCCC1,3.67%
12,Cc1cccc(C(=O)Oc2cc(C)[nH]c(=O)c2[N+](=O)[O-])c1,17.1%
13,COc1ccccc1-c1cn(S(=O)(=O)c2ccc(F)cc2)nc1N,0.868%
14,COc1cccc(CNc2ccc3c(c2)CCC3)c1,15.8%
15,O=C1CC(c2ccco2)CC2=C1C(c1ccccc1)n1nc(C(F)(F)F)nc1N2 (stereo not drawn),15.4%
16,CCc1ccc(OCC(=O)N/N=C/c2ccc(OS(=O)(=O)c3ccc(C)cc3)c(OC)c2)cc1,8.45%
17,CC[C@H](C)[C@@H](NC(=O)O[C@@H]1C(=O)c2cc(Br)ccc2O[C@H]1c1cccc(OC)c1)C(=O)OC,7.63%
18,CCN(CC)S(=O)(=O)c1cccc(NC(=O)COC(=O)c2cc(C)oc2C)c1,-10.2%
19,COc1ccc(CNC(=O)CN(Cc2ccc(F)cc2)C(=O)CCC(=O)Nc2nccs2)cc1,-1.85%
20,CCOc1ccc(S(=O)(=O)NCCCN2CCOCC2)cc1,9.88%
21,COc1ccc(NC(=O)CSCc2cc(=O)n3c(C)csc3n2)cc1,14.9%
22,COc1ccccc1CCn1c(N)cc(=O)[nH]c1=O,15.5%

row,SMILES,"hERG current change (%, negative = inhibition) at 1uM"
1,C/C(=N\NC(=O)c1c(C)nc2ccccn12)c1ccc(N2CCOCC2)cc1,6.09%
2,COc1cc2c(cc1NC(=O)CN(C)Cc1cccc(OC)c1OC)oc1ccccc12,15%
3,CCOC(=O)c1ccc(NS(=O)(=O)c2c(C)[nH]c(C)c2C(=O)N2CCCCC2)cc1,10.9%
4,CC1CCN(S(=O)(=O)c2ccc(S(=O)(=O)NCC(=O)C(C)(C)C)cc2)CC1,15.4%
5,O=C(C1CC1)N1CCC(c2nc(-c3ccc(S(=O)(=O)N4CCCC4)cc3)no2)CC1,7.72%
6,COc1ccccc1CN1C(=O)C2CC=CCC2C1=O (stereo not drawn),-11.3%
7,O=S(=O)(N/N=C1/CC(c2ccccc2)Oc2ccccc21)c1ccc(Br)cc1 (stereo not drawn),12.5%
8,COC1=CC2(O)CCCC2=CC1=O (stereo not drawn),12.4%
9,O=C(NCCc1ccccc1)C1CCCN1C(=O)Nc1cccc(Cl)c1 (stereo not drawn),4.34%
10,CCOC(=O)N1CCC(=NNC(=O)c2cc3ccccc3cc2O)CC1,6.6%
11,Clc1ccc(-c2cc(-c3nnc4n3CCCCC4)c3ccccc3n2)cc1,4.54%
12,COc1ccc(-c2nn(-c3ccccc3)cc2C(=O)N2CCN(S(=O)(=O)c3cccc(F)c3)CC2)cc1,0.0555%
13,CC(C)n1c(SCC(=O)NCc2ccco2)nc2c1c(=O)n(C)c(=O)n2C,1.35%
14,Cc1cccc(C)c1NC(=O)C1c2cccc[n+]2CC(=O)N1Cc1ccc2c(c1)OCO2.[I-] (stereo not drawn),15%
15,CCOC(=O)/C(C#N)=C/c1ccc(OCC(=O)Nc2ccccc2)c(OC)c1,5.68%
16,O=C(CSc1nnc(-c2ccc(O)cc2)n1-c1ccccc1)CC(=O)Nc1ccccc1,7.67%
17,CCOC(=O)c1c(S(=O)(=O)N2CCN(c3ccc(F)cc3)CC2)c(C)n(C)c1C,14.1%
18,Cc1cc(N2CCOCC2)nc2ccc(Cl)cc12,13.3%
19,CCc1cccc2c1NC(=O)C2(O)N1CCCC(C)C1 (stereo not drawn),10.4%
20,CCN(CC)S(=O)(=O)c1cccc(NC(=O)CNc2cccc(S(=O)(=O)N3CCOCC3)c2)c1,11.6%
21,Cc1nc2ccc(NC(=O)C(F)(F)F)cc2o1,4.93%
22,O=C(CSc1nnc(-c2ccco2)n1Cc1ccco1)NCc1ccccc1,-10.5%

row,SMILES,"hERG current change (%, negative = inhibition) at 1uM"
1,O=C(CSc1nc2c(c(=O)n1-c1ccccc1)SCC2)N1CCN(c2ccccc2)CC1,-2.85%
2,CCCN1CCC(NC(=O)C2CC=CCC2C(=O)O)CC1 (stereo not drawn),12.2%
3,N#Cc1c(N)nc2c(c1N)CC(CO)O2 (stereo not drawn),-1.36%
4,FC(F)(F)c1cccc(-c2cc(C3CCNCC3)[nH]n2)c1,0.722%
5,Cc1cccc2sc(NNC(=O)c3cc(=O)c4ccccc4o3)nc12,7.55%
6,Cc1c(NC(=O)CSc2nc3ccccc3n2C)c(=O)n(-c2ccccc2)n1C,-3.96%
7,CC(=O)c1ccc(N2CCN(C(=O)CCC(=O)c3cccs3)CC2)cc1,-12.7%
8,Cc1nn2c(N3CCN(C(=O)c4ccco4)CC3)cc(C(C)(C)C)nc2c1-c1ccccc1,2.53%
9,O=C(CSc1nccc2ccccc12)N1CCN(c2ccccn2)CC1,8.48%
10,CC1CCCN(C(=O)c2cc3ccccc3cc2O)C1 (stereo not drawn),-1.49%
11,CN(c1ccccc1)c1ccc(/C=N/NC(=O)CC#N)cc1,7.08%
12,COCCCNC(=S)N/N=C/c1ccc(O)cc1,10%
13,CCN(CC(=O)Nc1c(F)cccc1F)C(=O)CCNS(=O)(=O)c1ccc(C)c(C)c1,4.91%
14,Cc1ccc(NC(=O)NC2=NN(c3ccccc3)C(=O)/C2=C2/CCCN2C)cc1,8.91%
15,C/C(=N/OCC(=O)Nc1ccccc1)c1cccs1,4.47%
16,Cl.O=C(CN1CCCCC1)NC1CCc2cc3c(cc21)CCC3 (stereo not drawn),10.4%
17,O=Cc1cn(CC(=O)N2CCCCCC2)c2ccccc12,13.5%
18,Cc1cc(C(=O)C(C)Sc2cccc[n+]2[O-])c(C)n1-c1ccc(Cl)cc1 (stereo not drawn),1.4%
19,O=C(/C=C/c1c(Cl)cccc1Cl)NCc1ccco1,13%
20,CCOc1cccc(/C=C2/NC(=O)N(CC(=O)Nc3cccc(C)c3)C2=O)c1O,17%
21,COC(CNC(=O)CNC(=S)N(Cc1ccccc1)Cc1cccs1)OC,0.735%
22,CN(C)C(=O)COc1ncnc2scc(-c3ccc(F)cc3)c12,6.75%

row,SMILES,"hERG current change (%, negative = inhibition) at 1uM"
1,Cc1cc(Br)ccc1OCC(=O)N(Cc1nc(-c2ccccc2)no1)C(C)C,4.26%
2,NC(=O)C1=C[C@@H](c2ccc(Br)cc2)C[C@@H](OCc2ccc(CO)cc2)O1,8.76%
3,CCCCC(=O)NC(=S)Nc1nnn(CCC)n1,18.4%
4,CC1(c2ccccc2)NC(=O)N(NC(=O)COC(=O)c2cc(Br)ccc2O)C1=O (stereo not drawn),11.7%
5,Cc1c(NC(=O)C(C)OC(=O)COc2ccccc2)c(=O)n(-c2ccccc2)n1C (stereo not drawn),6.03%
6,O=C(NNC(=S)Nc1ccc(Br)cc1Cl)c1ccco1,16.1%
7,Cc1ncoc1C(=O)N1CCCC(C(=O)c2ccc(Oc3ccccc3)cc2)C1 (stereo not drawn),5.54%
8,Cc1noc(NS(=O)(=O)c2ccc(NC(=O)CCC3CCCC3)cc2)c1C,5.6%
9,CSc1nc(-c2ccccc2)nn1C(=O)c1ccccc1,15.1%
10,Cc1cc(-c2ccccc2)n2ncc(-c3ccccc3)c2n1,4.47%
11,Cc1cc(=O)[nH]c(N/N=C/c2ccc(Cl)c([N+](=O)[O-])c2)n1,5.04%
12,COc1ccccc1CCN=C(N)NS(=O)(=O)c1ccc(C)cc1,-0.349%
13,O=c1c(Cc2c(F)cccc2Cl)c(O)ccn1CCc1ccccn1,12.1%
14,CCOc1ccc(CCNC(=O)c2cccc(C#N)c2)cc1OCC,7.99%
15,Cc1cccn2c(CN[C@H]3CCCCNC3=O)c(C(=O)N3CCOCC3)nc12,5.12%
16,CC(=O)c1cccc(NC(=O)/C(=C/c2ccncc2)NC(=O)c2ccccc2)c1,13.4%
17,O=C(Nc1ccc(Cl)cc1)c1cc2c(cc1O)[nH]c1ccccc12,9.06%
18,O=C(Nc1ccc(-c2nnn(CC(=O)N3CCN(C(=O)c4ccco4)CC3)n2)cc1)c1ccccc1F,-23.1%
19,CC(C)(C)CNC(CO)C12CC3CC(CC(C3)C1)C2.Cl (stereo not drawn),10.6%
20,COc1ccc2c(c1OC)C(=O)N1C2SC(C)(C)[C@H]1C(=O)NC1CCCC1 (stereo partly drawn),13.6%
21,CCCNC(=O)c1onc(CSc2ccc(Cl)cc2)c1C(=O)NC(C)C,-10.1%

# Reference: paper PMC4336329 (PLoS ONE, 2015)
